# Data published in the supplement of paper PMC11417369.
# ± gives the standard deviation of the averaged measurements. The list shows a part of the results.
# Test system: PfAP2-I AP2 domain 3 (GST-tagged)
# Test: gcPBM binding intensity (ln(normalized median fluorescence intensity)); higher = stronger DNA binding
# Procedure, shortened: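 DNA-binding domains from P. falciparum, fused to GST and produced in E. coli, were put on an Agilent 4 × 180k double-stranded probe array for 1 h in 1× PBS holding 1% milk, 0.2 mg/ml BSA, 0.5% salmon testes DNA and 0.03% Triton X-100. Probes were primer-extended, 36 bp long and drawn from intergenic genomic regions, with negative controls included. After Alexa488 anti-GST antibody detection and a 488 nm scan, binding intensity was set as the highest Masliner-normalised natural-log median intensity across replicate spots of either probe orientation.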
row,Sequence,gcPBM binding intensity (ln)
1,AGGCTCATTTTTTTTAGTACATCAAAAAAAAAAAAA [TGCATGCA_negctrl_site591],8.24 ± 0.54
2,TGTATGTTTATTTGATGTACGGTCATACATATAAAT [XGTACX_site5176],7.87 ± 0.48
3,AAATTCATATGAATTTGTACGGACATAAATATCTTC [XGTACX_site1838],7.57 ± 0.67
4,ATGTCTACAGTTTTTGCACACATATAAATAAAAAAA [CACACA_site3600],9.65 ± 0.25
5,ATTTTTTTTTTTTTTTTTTTTGAGAAGAACTTTTTC [CACACA_negctrl_site1019],7.64 ± 0.35
6,AAACATCATAAATATACACACATATTTATATTTATA [CACACA_site6437],7.66 ± 0.47
7,CCATAACTCATATGCACACATAAATATTACATATAT [CACACA_site3821],8.87 ± 0.13
8,TTTTAAAAAGAAAAAAATAACATACATATATATATA [CACACA_negctrl_site240],9.155 ± 0.049
9,TAACACATATATTGTTGTACATTCAAACTGAAAAAT [XGTACX_site5565],7.82 ± 0.34
10,TTTTTTTTATTAAAAAGTACTAAACAAATTATATAT [XGTACX_site121],7.82 ± 0.31
11,AGATGGAGAAAGTTATGTACACATATATAAATATGT [XGTACX_site6150],7.87 ± 0.26
12,CCCATGTAATGAACATGTACATAATAATTTATAAAT [XGTACX_site8687],7.88 ± 0.61
13,ATATATATATATATGTGTACATATGTATATATATCT [XGTACX_site2930],9.32 ± 0.48
14,TATATACATATGTGATGTACATTTTTTGTAATATAA [XGTACX_site6985],7.71 ± 0.41
15,ATTTAATTTATTATGTGTACTTATTTAATTAAATTA [XGTACX_site3171],7.89 ± 0.15
16,ATATTTTTATTTAAATCACATCATTTTGTTTATTTG [CACACA_negctrl_site1056],7.8 ± 0.69
17,CATATAATTATTGAAAGTACATACAAATAAAAAGAT [XGTACX_site6535],8.12 ± 0.62
18,TTATATATTTATAAATGTACATATAATTTTTTTATA [XGTACX_site4696],7.63 ± 0.42
19,CTGATATATAGATGTAGTACATAAAAATGACGAATT [XGTACX_site5612],8.03 ± 0.57
20,TAAATATATTTATATTGTACATTTATGTTGATACCA [XGTACX_site228],7.54 ± 0.45
21,ATATATATATGTATATGTACATATATATACACATAT [XGTACX_site140],8.93 ± 0.028
22,TTTTGTGAATTTTAGATTTTTTAATACAAGAATATT [CACACA_negctrl_site606],7.53 ± 0.47

row,Sequence,gcPBM binding intensity (ln)
1,TATATATATAATATATGTACTGATATGCTATTTACT [XGTACX_site841],8.575 ± 0.064
2,ATATTTACCACTGTATGTACATATATAAAATATATC [XGTACX_site6373],8.31 ± 0.33
3,AAAAAAAAAGGTACTACACACTATTATCAATAGAAA [CACACA_site91],7.67 ± 0.24
4,TACTTATTATGAAACACACACCAAAACTACAGAATA [CACACA_site6265],8 ± 0.52
5,CAAAATAAAAAATTCACACACATATAAATATAAATA [CACACA_site7065],7.51 ± 0.49
6,ATATATATATAGTGCACACATATAAAATATATATAA [CACACA_site2745],11.29 ± 0.078
7,TTTACAGATACTTGCTCACACATATGTATAAAAATA [CACACA_site4928],8.02 ± 0.32
8,TATAATATATATAGGAGTACGTATGTATATTTATAA [XGTACX_site3521],7.89 ± 0.58
9,ATATTTTATAATTTTACACACCATATAAAATAATTC [CACACA_site2797],8.13 ± 0.41
10,ACATGAAACTATAAACGTACATACATACATATATAT [XGTACX_site5011],8.09 ± 0.6
11,AATAGTTAAATGTACACACTAACTACATGGAATATA [CACACA_site3262],7.89 ± 0.3
12,TATATATAAAACATATGTACATATATATATATATAT [XGTACX_site419],9.49 ± 1
13,AAGTAAAAAAATAGCACACACACAAAAACACCCACA [CACACA_site1291],8.81 ± 0.16
14,AGAGGCCAGCTTTCTCTTCTAAACATGTACAAAAAT [GTGCAC_negctrl_site98],7.63 ± 0.64
15,TGAGCACAAATACAGGTGCATATAAAATATATGACG,10.3 ± 0.3
16,AAAAAAATAAAATGTTCACACATTTCACAATTACTT [CACACA_site4859],7.4 ± 0.68
17,TTTTTAACATTTAAATGTACATGTTACAATTTAAAG [XGTACX_site8789],7.65 ± 0.47
18,TACTAAAACCCATACACACACATATATATAGTACCA [CACACA_site3184],7.83 ± 0.39
19,AGAGACTTAGAAAACACACATACATAAGATAATTTA [CACACA_site2377],7.67 ± 0.65
20,TTTTTATTTTTATACATATAATATATTATGATTAAA [CACACA_negctrl_site214],7.87 ± 0.42
21,ACAGCATAATCATGCTGTACATTATTTTCTTAAGTA [XGTACX_site8456],7.4 ± 0.67
22,ACTTACACATTTATTACACACATAAAGGAAAATTTT [CACACA_site1356],8.44 ± 0.46

row,Sequence,gcPBM binding intensity (ln)
1,TTAAAAAATAACAAGGTGCAAATAGGTTTATAAAAT,10.84 ± 0.064
2,ATATTTAAATGGATCACACATATATATATATATATA [CACACA_site5255],9.41 ± 0.66
3,CGCGAAGTAGCATTCACACACAGCAAAATATATATA [CACACA_site3495],7.95 ± 0.78
4,CACTAATAGTGGATTACACACATATATATGTATATA [CACACA_site2531],8.31 ± 0.43
5,ATATAATGACAAGTATAAGTATCACAAAGAAATAAA [CACACA_negctrl_site1403],7.78 ± 0.54
6,CCACTTTTTGAAGACACACACAAAAAAAAAAAAAAA [CACACA_site2551],8.08 ± 0.52
7,TTTTGAAGAAAATTCTTTTTTTTTTTTTTTTGTAAA [CACACA_negctrl_site102],7.02 ± 0.62
8,ATAACAATTATTTGTCGACACACGTATATGTTATTT [CACACA_site1766],7.87 ± 0.58
9,CAAGCTTTTTCCTTTACACACATTAATTATATATAT [CACACA_site1423],8.14 ± 0.56
10,CATTTTTCTATATGTGCATGTAAGATAAGAATAATT [TGCATGCA_site107],8.36 ± 0.49
11,TTTCGTCATTTTGTTTTTAATTCTACAATTTAGTTA [XGTACX_negctrl_site286],7.75 ± 0.69
12,TCATATAATATTTATATGCACACTTTTCTATATATA [CACACA_site4075],9.4 ± 0.15
13,TAAAATAAAAGTGAAACACACAGTATTTTACAACAT [CACACA_site3811],7.38 ± 0.76
14,AAAATAGCTGTATAGAGTACATATAAATAATGTTGT [XGTACX_site5692],7.57 ± 0.58
15,TGCAAAAAATTCCACACACACACACGCATATAAATA [CACACA_site6696],7.95 ± 0.38
16,AAAAAAAAAAAACACACACACACACCCAAATATATA [CACACA_site150],7.91 ± 0.2
17,CATAATACATATAACACACACAATTATACATAAAAT [CACACA_site3233],7.88 ± 0.33
18,AAAAAAAAAAAAAAAAAAAAAAAAAAAATACGAAAG [GTGCAC_negctrl_site729],9.87 ± 0.18
19,ATATATATATATATATGTACTTAAAAAATATATACA [XGTACX_site8952],9.34 ± 0.36
20,TATTTTTTTTGTGTGTGTCCTCATGTAATACTGCAA [XGTACX_site1380],8.17 ± 0.24
21,CTTTTTAATTAATACACACACACACGGATATAAATA [CACACA_site7145],8.23 ± 0.47
22,TATATTAAACTTTGCACACATAATTTAACTACAAAG [CACACA_site3441],8.86 ± 0.11

row,Sequence,gcPBM binding intensity (ln)
1,AATCATTTATTGATGGTGCAATATACCATCTAATGA [GTGCAC_site9440],11.4 ± 0.76
2,TCTCATTTTCCCTAAAAAAAAAAATAAATAAAAATA [TGCATGCA_negctrl_site580],7.42 ± 0.4
3,TTTTTCCATATTGTAGCATGCAGTATATATATCATG [TGCATGCA_site530],8.01 ± 0.77
4,ATATTATTTATGTATGCATGCGGCGAAATGGGCTTG [TGCATGCA_site28],8.38 ± 0.33
5,AATGGGTTACACATATGTACATAAAATATAAAAAAT [XGTACX_site3440],8.06 ± 0.73
6,ATTTCTATAAAAATAATCTACATTTTTTTTTTTTTT [CACACA_negctrl_site917],7.75 ± 0.61
7,TATATACATATATATATATGTATAGATAGATACATT [CACACA_negctrl_site1511],7.7 ± 0.39
8,TAACCACAATTTTAATGTACATATATATTTATATAT [XGTACX_site8968],7.72 ± 0.3
9,AATATTTTACAATACACATGCAAATAATATTCTAAA [TGCATGCA_site618],7.73 ± 0.65
10,TTTTGAAAAAATTTTTATAAAAGAATAAAATTATTA [XGTACX_negctrl_site570],7.5 ± 0.3
11,TAAAAATGGAAACACACACACATAAATATATTTTAT [CACACA_site2513],7.75 ± 0.74
12,CAATGCAAGGCTTAAAAAAATGGGCATATTATATAT [GTGCAC_negctrl_site304],7.79 ± 0.83
13,TTTTTTTACAACATTACACACAAATATTCTGGGTTA [CACACA_site3755],7.87 ± 0.69
14,AATATTATATTAAAATGTACAAAAATGAATTACTTT [XGTACX_site1473],7.7 ± 0.55
15,TCACATTTTGGACACGTGCACATATATTTGATACAT,9.48 ± 0.33
16,AAAATTAATTATTACAAAAATGAAAAGACATATTTT [GTGCAC_negctrl_site735],7.37 ± 0.56
17,ATTTATATATAAATGTGTACATATATATATATAAAC [XGTACX_site7592],7.96 ± 0.48
18,ATTGTAAGTAAACACACACACATATATCTGTATTTA [CACACA_site4542],7.82 ± 0.47
19,CTGAAATTAACAAAAGTGCATAAAAATAAAAAATAT [GTGCAC_site9652],10.8 ± 0.38
20,TACCATGTTCAAATTACACACATATAATGCAATATA [CACACA_site7034],8.69 ± 0.35
21,GTTCTACAAGCCACTGCATGCTGATATAGAATAAAT [TGCATGCA_site138],8.16 ± 0.38
22,TCATATATCCTTATCACACATATAATAAATTCCCTT [CACACA_site4457],7.98 ± 0.55
